According to the supplement of paper PMC8728848:
The other results are listed elsewhere or left out.

Experiments:
Assay in all cases: glycan array binding signal (z-score within array); higher = stronger binding
Conditions in all cases: glycan notation: IUPAC condensed, linker removed
Fuc(a1-2)Gal = target: Fuc(a1-2)Gal
Procedure, shortened: (§1)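 Glycan array binding is given as a within-array Z-score, which can be read as non-binding when negative. The arrays, 3228 of them, came from the Consortium for Functional Glycomics database and were retained only where the protein sequence was available. Z-scores were averaged across arrays of the same protein sequence at different concentrations or buffers and across linkers.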

Fuc(a1-2)Gal(b1-3)GalNAc = target: Fuc(a1-2)Gal(b1-3)GalNAc
Procedure, shortened: as §1

[1] = target: Fuc(a1-2)Gal(b1-3)GalNAc(a1-3)[Fuc(a1-2)]Gal(b1-4)Glc
Procedure, shortened: as §1

[2] = target: Fuc(a1-2)Gal(b1-3)GalNAc(a1-3)[Fuc(a1-2)]Gal(b1-4)GlcNAc
Procedure, shortened: as §1

[3] = target: Fuc(a1-2)Gal(b1-3)GalNAc(b1-3)Gal
Procedure, shortened: as §1

[4] = target: Fuc(a1-2)Gal(b1-3)GalNAc(b1-3)Gal(a1-4)Gal(b1-4)Glc
Procedure, shortened: as §1

[5] = target: Fuc(a1-2)Gal(b1-3)GalNAc(b1-3)Gal(b1-4)Glc
Procedure, shortened: as §1

[6] = target: Fuc(a1-2)Gal(b1-3)GalNAc(b1-4)[Neu5Ac(a2-3)]Gal(b1-4)Glc
Procedure, shortened: as §1

Fuc(a1-2)Gal(b1-3)GlcNAc = target: Fuc(a1-2)Gal(b1-3)GlcNAc
Procedure, shortened: as §1

[7] = target: Fuc(a1-2)Gal(b1-3)GlcNAc(b1-2)Man(a1-3)[Fuc(a1-2)Gal(b1-3)GlcNAc(b1-2)Man(a1-6)]Man(b1-4)GlcNAc(b1-4)GlcNAc
Procedure, shortened: as §1

[8] = target: Fuc(a1-2)Gal(b1-3)GlcNAc(b1-2)Man(a1-3)[Fuc(a1-2)Gal(b1-3)GlcNAc(b1-2)Man(a1-6)]Man(b1-4)GlcNAc(b1-4)[Fuc(a1-6)]GlcNAc
Procedure, shortened: as §1

[9] = target: Fuc(a1-2)Gal(b1-3)GlcNAc(b1-3)Gal(b1-4)Glc
Procedure, shortened: as §1

[10] = target: Fuc(a1-2)Gal(b1-3)GlcNAc(b1-3)GalNAc
Procedure, shortened: as §1

[11] = target: Fuc(a1-2)Gal(b1-3)GlcNAc(b1-3)[Fuc(a1-2)Gal(b1-3)GlcNAc(b1-6)]GalNAc
Procedure, shortened: as §1

[12] = target: Fuc(a1-2)Gal(b1-3)GlcNAc(b1-3)[Gal(b1-4)GlcNAc(b1-6)]Gal(b1-4)Glc
Procedure, shortened: as §1

[13] = target: Fuc(a1-2)Gal(b1-3)GlcNAc(b1-3)[Neu5Ac(a2-6)Gal(b1-4)GlcNAc(b1-6)]Gal(b1-4)Glc
Procedure, shortened: as §1

[14] = target: Fuc(a1-2)Gal(b1-3)GlcNAc6S
Procedure, shortened: as §1

[15] = target: Fuc(a1-2)Gal(b1-3)[Fuc(a1-4)]GlcNAc
Procedure, shortened: as §1

[16] = target: Fuc(a1-2)Gal(b1-3)[Fuc(a1-4)]GlcNAc(b1-2)Man(a1-3)[Fuc(a1-2)Gal(b1-3)[Fuc(a1-4)]GlcNAc(b1-2)Man(a1-3)]Man(b1-4)GlcNAc(b1-4)GlcNAc
Procedure, shortened: as §1

[17] = target: Fuc(a1-2)Gal(b1-3)[Fuc(a1-4)]GlcNAc(b1-2)Man(a1-3)[Fuc(a1-2)Gal(b1-3)[Fuc(a1-4)]GlcNAc(b1-2)Man(a1-6)]Man(b1-4)GlcNAc(b1-4)[Fuc(a1-6)]GlcNAc(b1-4)[Fuc(a1-6)]GlcNAc
Procedure, shortened: as §1

[18] = target: Fuc(a1-2)Gal(b1-3)[Fuc(a1-4)]GlcNAc(b1-3)[Fuc(a1-3)[Gal(b1-4)]GlcNAc(b1-6)]Gal(b1-4)Glc
Procedure, shortened: as §1

[19] = target: Fuc(a1-2)Gal(b1-3)[Fuc(a1-4)]GlcNAc(b1-3)[Gal(b1-4)GlcNAc(b1-6)]Gal(b1-4)Glc
Procedure, shortened: as §1

[20] = target: Fuc(a1-2)Gal(b1-4)Fuc(a1-3)]GlcNAc(b1-2)Man(a1-3)[Fuc(a1-2)Gal(b1-4)[Fuc(a1-3)]GlcNAc(b1-2)Man(a1-6)]Man(b1-4)GlcNAc(b1-4)GlcNAc
Procedure, shortened: as §1

Fuc(a1-2)Gal(b1-4)Glc = target: Fuc(a1-2)Gal(b1-4)Glc
Procedure, shortened: as §1

Fuc(a1-2)Gal(b1-4)Glc6S = target: Fuc(a1-2)Gal(b1-4)Glc6S
Procedure, shortened: as §1

Fuc(a1-2)Gal(b1-4)GlcNAc = target: Fuc(a1-2)Gal(b1-4)GlcNAc
Procedure, shortened: as §1

[21] = target: Fuc(a1-2)Gal(b1-4)GlcNAc(b1-2)Man
Procedure, shortened: as §1

[22] = target: Fuc(a1-2)Gal(b1-4)GlcNAc(b1-2)Man(a1-3)[Fuc(a1-2)Gal(b1-4)GlcNAc(b1-2)Man(a1-6)]Man(b1-4)GlcNAc(b1-4)GlcNAc
Procedure, shortened: as §1

[23] = target: Fuc(a1-2)Gal(b1-4)GlcNAc(b1-2)Man(a1-3)[Fuc(a1-2)Gal(b1-4)GlcNAc(b1-2)Man(a1-6)]Man(b1-4)GlcNAc(b1-4)[Fuc(a1-6)]GlcNAc
Procedure, shortened: as §1

[24] = target: Fuc(a1-2)Gal(b1-4)GlcNAc(b1-2)[Fuc(a1-2)Gal(b1-4)GlcNAc(b1-4)]Man(a1-3)[Fuc(a1-2)Gal(b1-4)GlcNAc(b1-2)Man(a1-6)]Man(b1-4)GlcNAc(b1-4)GlcNAc
Procedure, shortened: as §1

[25] = target: Fuc(a1-2)Gal(b1-4)GlcNAc(b1-3)Gal(b1-4)GlcNAc
Procedure, shortened: as §1

[26] = target: Fuc(a1-2)Gal(b1-4)GlcNAc(b1-3)Gal(b1-4)GlcNAc(b1-2)Man(a1-3)[Fuc(a1-2)Gal(b1-4)GlcNAc(b1-3)Gal(b1-4)GlcNAc(b1-2)Man(a1-6)]Man(b1-4)GlcNAc(b1-4)GlcNAc
Procedure, shortened: as §1

[27] = target: Fuc(a1-2)Gal(b1-4)GlcNAc(b1-3)Gal(b1-4)GlcNAc(b1-3)Gal(b1-4)GlcNAc
Procedure, shortened: as §1

[28] = target: Fuc(a1-2)Gal(b1-4)GlcNAc(b1-3)GalNAc
Procedure, shortened: as §1

[29] = target: Fuc(a1-2)Gal(b1-4)GlcNAc(b1-3)[Fuc(a1-2)Gal(b1-4)GlcNAc(b1-6)]GalNAc
Procedure, shortened: as §1

[30] = target: Fuc(a1-2)Gal(b1-4)GlcNAc(b1-3)[Fuc(a1-3)[Gal(b1-4)]GlcNAc(b1-6)]Gal(b1-4)Glc
Procedure, shortened: as §1

[31] = target: Fuc(a1-2)Gal(b1-4)GlcNAc(b1-6)GalNAc
Procedure, shortened: as §1

[32] = target: Fuc(a1-2)Gal(b1-4)GlcNAc6S
Procedure, shortened: as §1

[33] = target: Fuc(a1-2)Gal(b1-4)[Fuc(a1-3)]GalNAc(b1-3)Gal(b1-4)[Fuc(a1-3)]GlcNAc
Procedure, shortened: as §1

[34] = target: Fuc(a1-2)Gal(b1-4)[Fuc(a1-3)]GalNAc(b1-3)Gal(b1-4)[Fuc(a1-3)]GlcNAc(b1-3)Gal(b1-4)[Fuc(a1-3)]GalNAc
Procedure, shortened: as §1

[35] = target: Fuc(a1-2)Gal(b1-4)[Fuc(a1-3)]GlcNAc
Procedure, shortened: as §1

[36] = target: Fuc(a1-2)Gal(b1-4)[Fuc(a1-3)]GlcNAc(b1-2)Man(a1-3)[Fuc(a1-2)Gal(b1-4)[Fuc(a1-3)]GlcNAc(b1-2)Man(a1-6)]Man(b1-4)GlcNAc(b1-4)[Fuc(a1-6)]GlcNAc
Procedure, shortened: as §1

[37] = target: Fuc(a1-2)Gal(b1-4)[Fuc(a1-3)]GlcNAc(b1-2)[Fuc(a1-2)Gal(b1-4)[Fuc(a1-3)]GlcNAc(b1-4)]Man(a1-3)[Fuc(a1-2)Gal(b1-4)[Fuc(a1-3)]GlcNAc(b1-2)Man(a1-6)]Man(b1-4)GlcNAc(b1-4)GlcNAc
Procedure, shortened: as §1

[38] = target: Fuc(a1-2)Gal(b1-4)[Fuc(a1-3)]GlcNAc(b1-3)Gal(b1-4)[Fuc(a1-3)]GlcNAc
Procedure, shortened: as §1

[39] = target: Fuc(a1-2)Gal(b1-4)[Fuc(a1-3)]GlcNAc(b1-3)Gal(b1-4)[Fuc(a1-3)]GlcNAc(b1-3)Gal(b1-4)[Fuc(a1-3)]GlcNAc
Procedure, shortened: as §1

B1: Gal 2 (Homo sapiens), P05162 (protein)
chain: MTGELEVKNMDMKPGSTLKITGSIADGTDGFVINLGQGTDKLNLHFNPRFSESTIVCNSLDGSNWGQEQREDHLCFSPGSEVKFTVTFESDKFKVKLPDGHELTFPNRLGHSHLSYLSVRGGFNMSSFKLKE
Question: For B1, which “glycan array binding signal (z-score)” value (Fuc(a1-2)Gal) is on record?
Answer: The value was -0.285.

Question: What about the “glycan array binding signal (z-score)” value (Fuc(a1-2)Gal(b1-3)GalNAc) of the same binder?
Answer: Its value is 1.22.

Question: What about the “glycan array binding signal (z-score)” value [1] of the same binder?
Answer: Its value is -0.125.

Question: What about the “glycan array binding signal (z-score)” value [2] of the same binder?
Answer: Its value is 0.069.

Question: What about the “glycan array binding signal (z-score)” value [3] of the same binder?
Answer: The value was -0.231.

Question: And the “glycan array binding signal (z-score)” value [4]?
Answer: The value was -0.282.

Question: What about the “glycan array binding signal (z-score)” value [5] of the same binder?
Answer: The value was 3.12.

Question: And the “glycan array binding signal (z-score)” value [6]?
Answer: Its value is -0.24.

Question: What about the “glycan array binding signal (z-score)” value (Fuc(a1-2)Gal(b1-3)GlcNAc) of the same binder?
Answer: Its value is 1.99.

Question: What about the “glycan array binding signal (z-score)” value [7] of the same binder?
Answer: The value was -0.215.

Question: And the “glycan array binding signal (z-score)” value [8]?
Answer: Its value is -0.229.

Question: What about the “glycan array binding signal (z-score)” value [9] of the same binder?
Answer: The value was 2.35.

Question: What about the “glycan array binding signal (z-score)” value [10] of the same binder?
Answer: Its value is -0.166.

Question: What about the “glycan array binding signal (z-score)” value [11] of the same binder?
Answer: Its value is -0.048.

Question: And the “glycan array binding signal (z-score)” value [12]?
Answer: Its value is 0.057.

Question: And the “glycan array binding signal (z-score)” value [13]?
Answer: The value was -0.046.

Question: What about the “glycan array binding signal (z-score)” value [14] of the same binder?
Answer: Its value is 0.012.

Question: What about the “glycan array binding signal (z-score)” value [15] of the same binder?
Answer: The value was -0.246.

Question: And the “glycan array binding signal (z-score)” value [16]?
Answer: The value was 0.367.

Question: What about the “glycan array binding signal (z-score)” value [17] of the same binder?
Answer: The value was 0.137.

Question: What about the “glycan array binding signal (z-score)” value [18] of the same binder?
Answer: Its value is -0.103.

Question: And the “glycan array binding signal (z-score)” value [19]?
Answer: The value was -0.15.

Question: And the “glycan array binding signal (z-score)” value [20]?
Answer: Its value is -0.079.

Question: What about the “glycan array binding signal (z-score)” value (Fuc(a1-2)Gal(b1-4)Glc) of the same binder?
Answer: Its value is -0.05.

Question: What about the “glycan array binding signal (z-score)” value (Fuc(a1-2)Gal(b1-4)Glc6S) of the same binder?
Answer: Its value is -0.179.

Question: And the “glycan array binding signal (z-score)” value (Fuc(a1-2)Gal(b1-4)GlcNAc)?
Answer: The value was 0.393.

Question: And the “glycan array binding signal (z-score)” value [21]?
Answer: The value was -0.144.

Question: What about the “glycan array binding signal (z-score)” value [22] of the same binder?
Answer: Its value is 0.847.

Question: What about the “glycan array binding signal (z-score)” value [23] of the same binder?
Answer: Its value is -0.196.

Question: And the “glycan array binding signal (z-score)” value [24]?
Answer: The value was -0.083.

Question: What about the “glycan array binding signal (z-score)” value [25] of the same binder?
Answer: The value was 2.16.

Question: And the “glycan array binding signal (z-score)” value [26]?
Answer: The value was 0.488.

Question: What about the “glycan array binding signal (z-score)” value [27] of the same binder?
Answer: The value was 2.4.

Question: And the “glycan array binding signal (z-score)” value [28]?
Answer: Its value is -0.16.

Question: What about the “glycan array binding signal (z-score)” value [29] of the same binder?
Answer: Its value is -0.064.

Question: And the “glycan array binding signal (z-score)” value [30]?
Answer: Its value is -0.105.

Question: What about the “glycan array binding signal (z-score)” value [31] of the same binder?
Answer: The value was 0.15.

Question: What about the “glycan array binding signal (z-score)” value [32] of the same binder?
Answer: Its value is 0.177.

Question: What about the “glycan array binding signal (z-score)” value [33] of the same binder?
Answer: Its value is -0.509.

Question: What about the “glycan array binding signal (z-score)” value [34] of the same binder?
Answer: Its value is -0.356.

Question: What about the “glycan array binding signal (z-score)” value [35] of the same binder?
Answer: Its value is -0.22.

Question: And the “glycan array binding signal (z-score)” value [36]?
Answer: The value was -0.066.

Question: And the “glycan array binding signal (z-score)” value [37]?
Answer: Its value is -0.079.

Question: And the “glycan array binding signal (z-score)” value [38]?
Answer: Its value is -0.222.

Question: What about the “glycan array binding signal (z-score)” value [39] of the same binder?
Answer: Its value is -0.239.
